PubChem BioAssay AID1454 (National Center for Advancing Translational Sciences (NCATS), 2008)
The whole screen tested about 130,000 compounds, of which about 550 (0.42%) were called active. Inconclusive results (about 4%) are left out. Calls come from the whole dose curve; as a rule, active = well fitted inhibition curve with a large enough effect; inconclusive = small, poorly fitted or top-dose-only effect, or effect the other way; inactive = flat fitted curve, though single readings scatter. This is a selection; strong and weak results do not stand in their true shares.

Test: qHTS Assay for Inhibitors of the ERK Signaling Pathway using a Homogeneous Screening Assay; Stimulation with EGF; note: nearly all actives have a fitted effect of over 55% in size;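 for activity change, negative = inhibition: plate controls were stimulated vehicle wells for no effect and unstimulated vehicle basal for full effect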
Settings: HEK293-V1b, EGF-stimulated phospho-ERK AlphaScreen; activity change, negative = inhibition: at the top concentration
From the text: NIH Chemical Genomics Center [NCGC]
NIH Molecular Libraries Screening Centers Network [MLSCN]
Assay Submitter (PI): Dr. Wei Zheng, NCGC/NIH
The Ras/extracellular-signal-regulated kinase (ERK) mitogen activated protein (MAP) kinase signaling pathway (ERK1/2 cascade) plays a key role in transmitting signals from the cell surface to the nucleus (Nishida and Gotoh 1993; Chang and Karin, 2001). The cascade is initiated by the small G-protein Ras, which recruits Raf from the cytosol, where activation occurs. Alternatively, this pathway can be activated by elevating intracellular cAMP, or by activation of a receptor tyrosine kinase as epidermal growth factor receptor.
Activation of the ERK pathway is essential in increased cell division and cell survival. Sustained and constitutive activation of the ERK pathway, however, has been linked to uncontrolled cell proliferation, increased cell survival, and tumor progression. Thus, the ERK has been as an attractive target for cancer chemotherapy in the past few years (Sebolt-Leopold and Herrera, 2004). Given its physiological and pathological importance, assessment of ERK phosphorylation has been broadly performed in both basic research and drug discovery. Most assays for the measurement of ERK phosphorylation use the antibody-based detection methods, such as western blot and ELISA. These assays require multiple reagent additions with cell wash steps and are not suitable for high throughout screening.
The current cell-based ERK phosphorylation assay was performed using AlphaScreen platform. AlphaScreen is a two bead-based proximity-dependent chemical energy transfer luminescent assay platform. The assay reagents (ERK SureFire(TM) kit) were supplied from TGR BioSciences (Australia). In the presence of specific antibodies, phosphorylated ERK will bring "donor" and "acceptor" beads to a proximity range (<200 nm), and subsequently lead a chemical luminescent reaction upon exciting donor beads with 680 nm laser. To exclude the assay-related false positives, we used a biotinylated rabbit IgG to perform counter-screen. The biotinylated antibody mimics the phosphorylated ERK1/2 for bringing streptavidin coated beads and protein-A coated beads to a proximity range for the AlphaScreen detection.
NCGC Assay Protocol Summary:
HEK293 cells stably expressing type-1 vasopressin receptor (V1b) were maintained in DMEM medium (Invitrogen, Carlsbad, CA) at 37C under a humidified atmosphere containing 5% CO2 and 95% air. The medium contained 10% FBS, 2 mM L-glutamine, non-essential amino acid, pyruvate and 50 U/ml penicillin and 50 ug/ml streptomycin (Invitrogen). The aliquots of frozen cells were stored at -135C and used for the compound screening. All compounds were screened as titrations from 0.6 nM to 46 uM final concentration. Epidermal growth factor (EGF) was used to stimulate the ERK phosphorylation pathway. The ERK phosphorylation in cells was determined using an AlphaScreen assay kit provided by […]. Data were normalized to the controls for basal activity (DMSO only) and 100% activation (25 nM EGF). AC50 values were determined from concentration-response data modeled with the standard Hill equation.
(1) Seed 4 ul/well of resuspended frozen HEK293 cells containing 2000 cells in white 1536-well plates for overnight with 1% FBS at 37C under a humidified atmosphere containing 5% CO2 and 95% air.
(2) Add 23 nL compounds in DMSO solution. The final titration was 0.6 nM to 46 uM.
(3) Incubate at 37C for 30 min.
(4) Dispense 0.5uL EGF (25 nM in final)
(5) Incubate at 37C for 5 min.
(6) Dispense 0.5uL of 1:2 diluted 5x lysis buffer.
(7) Incubate at 37C for 10 min.
(8) Dispense 1.5uL of mixture of activation buffer and reaction buffer with AlphaScreen beads (streptavidin donor beads and protein-A acceptor beads, 10 ng/well for each).
(9) Incubate at room temperature for 5 hr.
(10) Detect the assay plate in an EnVision plate reader (PerkinElmer) using the AlphaScreen detection mode.
[…]
Potency is the fitted concentration of half-maximal effect.

| Structure (SMILES) | activity change, negative = inhibition | Potency |
| --- | --- | --- |
| c1ccc(-c2ccc(C(c3ccccc3)n3ccnc3)cc2)cc1 (configuration not stated) | inactive: 5.69% | – |
| COc1cc(N)c(Cl)cc1C(=O)N[C@@H]1CN2CCC1CC2 | inactive: 0.22% | – |
| COc1ccc(OC)c([C@H](O)[C@H](C)N)c1 | inactive: 2.9% [at 25.7 µM] | – |
| Clc1ccc(CO[C@@H](Cn2ccnc2)c2ccc(Cl)cc2Cl)cc1 | inactive: -5.19% [at 25.7 µM] | – |
| CCCN(CCC)C1Cc2cc(OC)c(OC)cc2C1 | inactive: -6.41% | – |
| CNc1ccc2oc(C[C@H]3O[C@]4(CC[C@H]3C)O[C@H]([C@H](C)C(=O)c3ccc[nH]3)[C@H](C)C[C@H]4C)nc2c1C(=O)O | inactive: -15.4% | – |
| COC(=O)N1CCN(C(=O)Cc2ccc(Cl)c(Cl)c2)C(CN2CCCC2)C1 (configuration not stated) | inactive: -0.516% | – |
| Clc1ccc(CS[C@@H](Cn2ccnc2)c2ccc(Cl)cc2Cl)cc1 | inactive: 2.29% [at 25.7 µM] | – |
| O=C(O)CNC(=O)C(CS)Cc1ccccc1 (configuration not stated) | inactive: 8.48% | – |
| C[C@H](CCC(=O)O)[C@H]1CC[C@@H]2[C@H]3CC[C@H]4C[C@@H](O)CC[C@@]4(C)[C@H]3CC[C@]21C | inactive: 6.26% [at 25.7 µM] | – |
| Cc1ccc(/C=C2\C(=O)NC(=S)N(c3ccccc3F)C2=O)s1 | – | active: 20 µM |
| Cc1nc(-c2ccc(-c3ccc(C(=O)N4CCc5cc6c(cc54)C4(CCN(C)CC4)CO6)cc3)c(C)c2)no1 | inactive: 9.49% | – |
| C#CCN(C)[C@@H](C)Cc1ccccc1 | inactive: -8.79% [at 25.7 µM] | – |
| Clc1ccc(COC(Cn2ccnc2)c2ccc(Cl)cc2Cl)cc1 (configuration not stated) | – | active: 28.2 µM |
| CCCCCCCCCOc1ccc2[nH]cc(CCN)c2c1 | inactive: -6.37% | – |
| CC(=O)[C@H]1CCC2C3CC[C@H]4C[C@H](O)CC[C@]4(C)C3CC[C@@]21C (some centres not stated) | inactive: 13.1% | – |
| O=C(CCCN1CCC2(CC1)C(=O)NCN2c1ccccc1)c1ccc(F)cc1 | – | inactive |
| Cc1cc(-c2n[nH]c(=S)n2-c2ccc(C)c(C)c2)no1 | – | active: 3.98 µM |
| Clc1ccc(COC(Cn2ccnc2)c2ccc(Cl)cc2Cl)c(Cl)c1 (configuration not stated) | inactive: 6.98% [at 25.7 µM] | – |
| COc1ccc(OC)c(C(O)C(C)N)c1 (configuration not stated) | – | inactive |
| OCC[n+]1c2ccccc2nc2ccc(N3CCOCC3)cc21 | – | active: 14.1 µM |

| Structure (SMILES) | activity change, negative = inhibition | Potency |
| --- | --- | --- |
| Brc1c(NC2=NCCN2)ccc2nccnc12 | – | inactive |
| O=c1c(O)c(-c2ccc(O)c(O)c2)oc2cc(O)cc(O)c12 | – | inactive |
| CCNC(=O)[C@@H]1O[C@@H](n2cnc3c(N)ncnc32)[C@H](O)[C@H]1O | inactive: -13.6% | – |
| Cc1cc(O)c2c(c1)C(=O)c1cc(O)cc(O)c1C2=O | inactive: -8.43% | – |
| CC(=O)N1CCN(c2ccc(OC[C@@H]3CO[C@@](Cn4ccnc4)(c4ccc(Cl)cc4Cl)O3)cc2)CC1 | inactive: 5.81% [at 25.7 µM] | – |
| C#CCN(C)[C@H](C)Cc1ccccc1 | inactive: -6.24% | – |
| CCCSc1ccc2nc(NC(=O)OC)[nH]c2c1 | – | inactive |
| Cc1cc2c(C(C)C)c(O)c(O)c(C=O)c2c(O)c1-c1c(C)cc2c(C(C)C)c(O)c(O)c(C=O)c2c1O | – | inactive |
| CC(=O)[C@@H]1CC[C@@H]2[C@@H]3CCC4=CC(=O)CC[C@@]4(C)[C@H]3CC[C@]21C | inactive: -6.64% [at 25.7 µM] | – |
| Cc1c2ccncc2c(C)c2c1[nH]c1ccccc12 | – | inactive |
| O=C1NC(=O)N(CCC2=CCCCC2)C(=O)/C1=C/c1cccs1 | inactive: -13.9% [at 57.5 µM] | – |
| CCCCC/C=C\C/C=C\C/C=C\C/C=C\CCCC(=O)Nc1ccc(O)cc1 | inactive: 3.31% | – |
| CCNC(=O)[C@H]1O[C@@H](n2cnc3c(N)ncnc32)[C@H](O)[C@@H]1O | – | active: 8.91 µM |
| OCCN1CCN(CCCN2c3ccccc3Sc3ccc(C(F)(F)F)cc32)CC1 | – | inactive |
| COC(=O)N1CCN(C(=O)Cc2ccc(Cl)c(Cl)c2)[C@H](CN2CCCC2)C1 | inactive: -1.52% | – |
| CCC(COC(=O)c1cc(OC)c(OC)c(OC)c1)(c1ccccc1)N(C)C (configuration not stated) | inactive: -16.8% | – |
| COC(=O)C1=C(C)NC(C)=C(C(=O)OC)C1c1ccccc1[N+](=O)[O-] | – | inactive |
| CC[C@H]1CN2CCc3cc(OC)c(OC)cc3[C@@H]2C[C@@H]1C[C@H]1NCCc2cc(OC)c(OC)cc21 | inactive: -9.59% [at 57.5 µM] | – |
| Cc1ccc(N2C(=O)NC(=O)/C(=C/C=C/c3ccco3)C2=O)cc1 | inactive: 0.485% | – |
| Fc1ccc(C(OCCN2CCN(CCCc3ccccc3)CC2)c2ccc(F)cc2)cc1 | – | inactive |
| COc1ccc(Cc2nccc3cc(OC)c(OC)cc23)cc1OC | – | inactive |

| Structure (SMILES) | activity change, negative = inhibition | Potency |
| --- | --- | --- |
| COc1ccc2c3c([nH]c2c1)C(C)=NCC3 | – | inactive |
| CCC1CN2CCc3cc(OC)c(OC)cc3C2CC1CC1NCCc2cc(OC)c(OC)cc21 (configuration not stated) | inactive: 1.42% | – |
| COc1ccc2c(c[n+](C)c3c4cc5c(cc4ccc23)OCO5)c1OC | – | active: 12.6 µM |
| CC(=O)C1CCC2C3CCC4=CC(=O)CC[C@@]4(C)C3CC[C@]12C (some centres not stated) | inactive: 3.72% | – |
| Nc1ccncc1 | – | inactive |
| C[C@@H]1OC(OC2C(OC3CC[C@@]4(C)C5CC=C6C7CC(C)(C)CC[C@@]7(C(=O)O)CCC6(C)C5(C)CCC4[C@]3(C)CO)OCC(O)C2O)C(O)C(O)C1O (some centres not stated) | – | active: 28.2 µM |
| Clc1ccc(CSC(Cn2ccnc2)c2ccc(Cl)cc2Cl)cc1 (configuration not stated) | inactive: -12.7% [at 57.5 µM] | – |
| CC(=O)N1CCN(c2ccc(OC[C@H]3CO[C@](Cn4ccnc4)(c4ccc(Cl)cc4Cl)O3)cc2)CC1 | inactive: -0.393% | – |
| COC(=O)[C@@]1(Cc2ccc(F)cc2)[C@H]2c3cc(C(=O)N(C)C)[nH]c3C[C@H]2CN1C(=O)c1ccccc1 | inactive: 3.34% | – |
| c1ccc(-c2cc(-c3ccccc3)[n+](-c3ccccc3)c(-c3ccccc3)c2)cc1 | – | active: 22.4 µM |
| CCNC(=O)[C@H]1O[C@@H](n2cnc3c(N)ncnc32)[C@H](O)[C@H]1O | inactive: 5.97% | – |
| O=C1NC(=O)C(=Cc2ccccc2Oc2ccc(F)cc2)C(=O)N1 | – | active: 3.98 µM |
| Cc1cc2c(s1)Nc1ccccc1N=C2N1CCN(C)CC1 | inactive: -24.4% | – |
| CC1=NCCc2c1[nH]c1cc(O)ccc21 | – | inactive |
| Cc1nn(C(C)(C)C)c(C)c1/C=N/OC(=O)Nc1ccc(Cl)c(Cl)c1 | – | active: 31.6 µM |
| O=C(O)c1ccccc1-c1c2cc(Br)c(=O)cc-2oc2[c]([Hg])c(O)c(Br)cc12 | inactive: 8.65% [at 25.7 µM] | – |
| C#CCN(C)C(C)Cc1ccccc1 (configuration not stated) | – | inactive |
| O=c1[nH]c2ccccc2n1CCCN1CCC(n2c(=O)[nH]c3cc(Cl)ccc32)CC1 | inactive: -1.34% [at 25.7 µM] | – |
| COc1cc2c(cc1OC)[C@@H]1C(=O)c3ccc4c(c3OC1CO2)CC(C(C)C)O4 (some centres not stated) | inactive: 11.7% | – |
| CC(C)CC(N(C)C)C1(c2ccc(Cl)cc2)CCC1 (configuration not stated) | inactive: 9.11% | – |
